Out of some 410,000 compounds screened, about 6,400 (1.6%) were called active. Inconclusive means that the source gave no clear call. Such entries were picked first, then a sample of the others. Calls come from the whole dose curve; as a rule, active = well fitted inhibition curve with a large enough effect; inconclusive = small, poorly fitted or top-dose-only effect; inactive = no such curve, though single readings can be large or run the other way. A potency beside an inconclusive call is a rough fit, not a confirmed value.
molecular target: Glucagon-like peptide 1 receptor (Homo sapiens) (UniProt P43220); assay: qHTS of GLP-1 Receptor Inverse Agonists (Inhibition Mode); details: HEK293 GLP-1R CRE-luciferase, luminescence, 24 h, GLP-1R form is constitutively active; series mostly up to 38.3 µM; note: nearly all actives have a fitted effect of over 55% in size
Procedure, shortened: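 Stable HEK293 clone (constitutively active GLP-1R + cAMP-response luciferase); 200 cells/uL plated, 12 h pre-culture, compound 24 hr, 37 deg C/5% CO2; detection reagent 12 min RT; luminescence.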
Potency is the fitted concentration of half-maximal effect; tags give direction and shape of the fitted curve.

Sequence of UniProt P43220 (P43220 whole entry, looked up): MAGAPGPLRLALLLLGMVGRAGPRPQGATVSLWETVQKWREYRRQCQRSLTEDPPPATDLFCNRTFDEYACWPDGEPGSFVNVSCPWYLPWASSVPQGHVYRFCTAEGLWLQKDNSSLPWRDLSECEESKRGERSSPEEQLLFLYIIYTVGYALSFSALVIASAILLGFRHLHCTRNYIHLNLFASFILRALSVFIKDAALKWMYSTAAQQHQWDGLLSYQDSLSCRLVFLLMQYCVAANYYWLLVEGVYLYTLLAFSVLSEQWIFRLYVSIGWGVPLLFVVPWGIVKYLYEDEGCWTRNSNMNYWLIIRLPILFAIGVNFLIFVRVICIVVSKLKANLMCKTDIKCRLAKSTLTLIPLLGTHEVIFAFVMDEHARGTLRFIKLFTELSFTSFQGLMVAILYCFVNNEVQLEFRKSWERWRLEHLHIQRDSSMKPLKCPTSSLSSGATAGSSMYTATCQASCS

Potency, inconclusive:
Cc1nonc1NC(=O)CSc1nc(C23CC4CC(CC(C4)C2)C3)nc2ccccc12 7.94 µM [inhibitor, partial curve, poor fit]
CN(Cc1ccccc1)C(=O)c1nc(-c2ccc(Cl)cc2)n2c1CCCCC2 10 µM [inhibitor, partial curve, poor fit]
Cc1ccc(C(=S)N2CCN(Cc3ccccc3)CC2)s1 10 µM [inhibitor, partial curve, poor fit]
CC(=O)Nc1nc(C)c(-c2csc(Nc3cccc(C(C)=O)c3)n2)s1 28.2 µM [inhibitor, single point]
CCn1c(CN2CCCCC2)nc2cc(NC(=O)c3cc(OC)c(OC)c(OC)c3)ccc21 1.26 µM [inhibitor, partial curve, poor fit]
C/C(Sc1nnc(Cc2ccccc2)o1)=C(\O)c1ccccc1 10 µM [inhibitor, partial curve, poor fit]
CCOC(=O)C(C#N)(Cc1ccc2ccccc2n1)Cc1ccc2ccccc2n1 14.1 µM [inhibitor, partial curve, poor fit]
CC(C)NC(=O)C1C(c2ccc(C(F)(F)F)cc2)=Nc2ccccc2N1C(=O)c1cccc(C(F)(F)F)c1 (stereo not drawn) 22.4 µM [inhibitor, single point]
Cc1cc(N)c(NC2=CC(=O)CC(C)(C)C2)cc1C 28.2 µM [inhibitor, single point]
COc1ccc(NS(=O)(=O)c2ccc3[nH]c4c(c3c2)CCCC4)cc1OC 10 µM [inhibitor, partial curve]
CCOC1=C(C#N)CC2(CC1)c1ccccc1-c1ccccc12 14.1 µM [inhibitor, single point]
CCCCOc1cccc(C(=O)N(Cc2ccc(C)o2)c2ccccn2)c1 15.8 µM [inhibitor, single point]
O=C(CN(C(=O)c1csnn1)c1cccc2c1CCCC2)NCc1ccccc1 17.8 µM [inhibitor, single point]
CCOC(=O)Cc1csc(NC(=O)c2cccs2)n1 1 µM [inhibitor, full curve, poor fit]
CN(CC(=O)Nc1cccc(F)c1)C(=O)c1cn(-c2ccccc2)nc1-c1ccc(F)cc1 11.2 µM [inhibitor, partial curve, poor fit]
Cc1cc(N2CCN(Cc3cn(C)nc3-c3cccc(Cl)c3)CC2)cc(C)n1 5.01 µM [inhibitor, full curve, poor fit]
COc1ccc(-c2coc3c(C(=O)NCc4ccccc4)cccc23)c(C)c1 7.94 µM [inhibitor, partial curve, poor fit]
Cc1ccccc1NCCC(=O)Nc1ccc(Cl)cc1 17.8 µM [inhibitor, partial curve, poor fit]
Nc1ccccc1Nc1cc(-c2ccccc2)[nH]n1 10 µM [inhibitor, single point]
C/C(=N\NC(=O)c1ccncc1)c1cc2ccccc2oc1=O 10 µM [inhibitor, partial curve, poor fit]
CCOC(=O)C(Sc1cc(-c2ccccc2)nc2ncnn12)C(C)=O (stereo not drawn) 8.91 µM [inhibitor, partial curve, poor fit]
Cc1onc(-c2ccccc2Cl)c1C(=O)NC(=S)NCCc1ccccc1 22.4 µM [inhibitor, single point]
CC1(C)OC(C)(C)/C(=C\c2ccccc2[N+](=O)[O-])C1=O 10 µM [inhibitor, single point]
O=C(NC1(C(F)(F)F)NC(=O)N(CCc2ccccc2)C1=O)c1ccc(Cl)cc1 (stereo not drawn) 28.2 µM [inhibitor, single point]
Cc1onc(-c2ccccc2Cl)c1C(=O)Nc1ccccc1O 11.2 µM [inhibitor, partial curve, poor fit]
N/C(=N\OC(=O)CCCc1ccccc1)c1ccc(Br)cc1 11.2 µM [inhibitor, partial curve, poor fit]
COc1ccc(C(=O)C2CCCN(C3Cc4ccccc4C3)C2)cc1OC (stereo not drawn) 11.2 µM [inhibitor, partial curve, poor fit]
CCN(CC)CCCN(Cc1cc2cc3c(cc2[nH]c1=O)OCO3)C(=S)NCc1ccco1 7.94 µM [inhibitor, partial curve, poor fit]
O=C(CCCc1ccccc1)Nc1ccc(Br)cc1F 22.4 µM [inhibitor, partial curve, poor fit]
O=C1OCCN1C(=O)[C@H]1[C@H](c2ccccc2)C(c2ccc(F)cc2)=NN1c1ccc(Br)cc1 11.2 µM [inhibitor, partial curve, poor fit]
COC(=O)c1ccc(NC(=O)c2cccc(N3C(=O)CCC3=O)c2)cc1 28.2 µM [inhibitor, single point]
Cc1cc(-c2ccc(C(C)C)c(S(=O)(=O)N3CC(=O)Nc4ccccc43)c2)on1 28.2 µM [inhibitor, single point]
CCn1c2ccccc2c2cc(NC(=O)c3ccc(Br)o3)ccc21 7.08 µM [inhibitor, partial curve, poor fit]
O[C@@H](c1cc(C(F)(F)F)nc2c(C(F)(F)F)cccc12)[C@H]1CCCCN1 11.2 µM [inhibitor, partial curve, poor fit]
CN(C)C(=O)c1ccc(Nc2ncnc3sc4c(c23)CCCCC4)cc1 3.55 µM [inhibitor, partial curve, poor fit]
c1ccc2nc(N3CCN(Cc4ccc5c(c4)OCO5)CC3)cnc2c1 12.6 µM [inhibitor, single point]
CC(O)(c1ccc(F)c(F)c1)c1nc(-c2ccccc2)cs1 (stereo not drawn) 12.6 µM [inhibitor, single point]
CC(NC(=O)c1ccncc1)c1ccc(Cl)cc1Cl (stereo not drawn) 3.16 µM [inhibitor, partial curve, poor fit]
S=C(NN=C1C2CC3CC(C2)CC1C3)Nc1ccccc1 10 µM [inhibitor, partial curve]
O=c1c2ccccc2nnn1CSc1nnc(C2COc3ccccc3O2)n1-c1ccccc1 (stereo not drawn) 7.94 µM [inhibitor, partial curve]
CCCN(CC(=O)Nc1ccccc1C)C(=O)c1ccc(-c2ccccc2)cc1 11.2 µM [inhibitor, partial curve, poor fit]
COc1ccc(C2c3c(n(C)c4ccccc34)C(=O)N2CC(=O)Nc2cccc(F)c2)cc1 (stereo not drawn) 11.2 µM [inhibitor, single point]
COc1cc(CN2CCCC(C(=O)Nc3cccc(-n4cccn4)c3)C2)ccc1F (stereo not drawn) 5.62 µM [inhibitor, partial curve, poor fit]
CC(C)(C)OC(=O)N[C@@H](Cc1ccccc1)c1nnc(SCC(=O)c2ccc(Cl)cc2)o1 31.6 µM [inhibitor, single point]
CN(CCOc1ccc(Cl)cc1)CC(O)c1ccccc1 (stereo not drawn) 3.98 µM [inhibitor, partial curve, poor fit]
COc1ccc(NC(=O)c2oc3ccc(S(=O)(=O)N4CCOCC4)cc3c2C)cc1 12.6 µM [inhibitor, single point]
CCOc1cccc(-c2c(C(=O)N/N=C/c3ccc(C)s3)nnn2-c2nonc2N)c1 22.4 µM [inhibitor, single point]
NS(=O)(=O)c1ccc(NC(=S)N2CCN(c3cccc(Cl)c3)CC2)cc1 22.4 µM [inhibitor, single point]
Cc1ccc(CN2CCN(CC(=O)N=Nc3c(O)[nH]c4ccccc34)CC2)cc1 11.2 µM [inhibitor, single point]
CCc1ccc(NC(=O)COC(=O)C2(c3ccc(Cl)cc3)CCCC2)cc1 12.6 µM [inhibitor, partial curve, poor fit]

Potency, active:
O=C(CSc1cccc2cccnc12)N1CCCC1 0.501 µM
CCCCC1C(=O)NN(c2ccccc2)C1=O (stereo not drawn) 1.78 µM

Potency, inactive:
CC(=O)N[C@@H](Cc1c[nH]c2ccccc12)C(=O)OCC(=O)Nc1ccc2c(c1)OCO2
COCCOCCn1c(CCCO)nc2ccccc21
Fc1ccc(-n2c(-c3ccc4c(c3)OCO4)n[nH]c2=S)cc1Cl
CN1CCNC(=O)C1CC(=O)NCCc1ccccc1F (stereo not drawn)
Oc1c(C(c2ccccc2)N2CCC(O)CC2)sc2nc(-c3ccco3)nn12 (stereo not drawn)
Cc1[nH]n(-c2ccccc2)c(=O)c1C(c1cccc([N+](=O)[O-])c1O)c1c(C)[nH]n(-c2ccccc2)c1=O
COc1cccc(C(C2=C(O)CC(C)(C)CC2=O)C2C(=O)CC(C)(C)CC2=O)c1 (stereo not drawn)
O=C(CSc1nnc(NC(=O)c2ccccc2)s1)NC1CCCC1
O=C1S/C(=C/c2ccc(N3CCOCC3)o2)C(=O)N1Cc1ccc(F)cc1
CCCc1cc(=O)[nH]c2nnc(SCC)n12
O=C(NCC(c1ccco1)S(=O)(=O)c1cccs1)c1ccccc1F (stereo not drawn)

— PubChem BioAssay AID624417 (National Center for Advancing Translational Sciences (NCATS), 2012)
